Laboratory results taken from patent publication US20240327509A1, “HUMAN CXCLI6 ANTIBODIES AND THE USE THEREOF” (CELLUS,INC., priority 2021, published 2024).

T1: recombinant human CXCL16 antigen (Homo sapiens, UniProt Q9H2A7)
T1 construct: purchased R&D systems 976-CX
T1 sequence (Q9H2A7 30-118 limits assumed): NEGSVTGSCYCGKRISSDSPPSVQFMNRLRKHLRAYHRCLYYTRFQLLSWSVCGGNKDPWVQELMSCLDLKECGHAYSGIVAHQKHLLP

T2: Recombinant human CXCL16 (rhCXCL16) protein (Homo sapiens, UniProt Q9H2A7)
T2 sequence (Q9H2A7 30-118): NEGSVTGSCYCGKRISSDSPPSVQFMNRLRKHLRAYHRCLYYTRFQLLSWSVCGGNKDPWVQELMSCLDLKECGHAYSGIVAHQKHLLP


Tests used:
[1] = tested on: thyroid cancer cell BHP10-3M; assay: transwell migration assay toward co-CM; format: cell-based; conditions: antibody 10-100 μg/mL, 6 hours, FIG. 2B
Experimental: To evaluate that blockage of CXCL16 could lead to inhibit cancer cell migration. transwell migration assay was performed. For assay, 8 μm pore-size polycarbonate membrane (Corning, NY, USA) was used. A polycarbonate membrane with a pore size of 8 μm (Corning, NY, USA) was pre-coated with gelatin, and the membrane was placed into a 24-well plate. The membrane separated each well into an upper chamber and a lower chamber. CXCL16 antibody (at 10-100 μg/mL) was preincubated in the upper and lower chamber for 0.5 hours. The upper and lower chamber were plated with thyroid cancer cell BHP10-3M (1×10^5/100 μL) and co-culture conditioned medium (0.5× co-CM), respectively.
The co-CM is the conditioned medium obtained from co-culture of BHP 10^-3M and THP-1 cells. The BHP10-3M cells were seeded on 100 mm culture dishes with 3×10^6 cells in 10 ml of RPMI1640 medium. After 24 hours incubation, THP-1 cells were seeded additionally with 6×10^6 cells. After then, 10 μL of 5 mM PMA stock solution (V1171, Promega) to 10 mL of RPMI medium to make 5 μM PMA. It induced the macrophage differentiation. After 24 hours incubation, the conditioned medium obtained from the co-culture of thyroid cancer cells and macrophages (co-CM) were collected, and it was rich in CXCL16. After 6 hours of incubation of thyroid cancer cells in the upper chamber and co-CM in the lower chamber, the lower chamber was stained with 1% crystal violet solutions and the numbers of migrated cells were counted. […] Sec FIG. 2B.

[2] = tested on: CXCR6-overexpressed CHO-K1 cells; assay: transwell migration assay toward rhCXCL16; format: cell-based; conditions: 100 ng/mL rhCXCL16 in lower chamber, 4-5 h; FIG. 2A
Experimental: CXCR6 is a receptor for chemokine CXCL16 and cells harboring CXCR6 migrate in response to CXCL16. Therefore, to evaluate the activity of CXCL16 antibody in inhibiting cell migration induced by CXCL16 and CXCR6 interaction, transwell migration assays were performed. A polycarbonate membrane with a pore size of 8 μm (Corning, NY, USA) was pre-coated with gelatin, and the membrane was placed into a 24-well plate. The membrane separated each well into an upper chamber and a lower chamber. The upper chamber was plated with CXCR6-overexpressed CHO-K1 cells. The lower chamber was filled with media containing 100 ng/mL rhCXCL16. After 4-5 h, the lower chamber was stained with 1% crystal violet solutions and the numbers of migrated cells on the lower chamber were counted.

Akt phosphorylation = assay: rhCXCL16-induced Akt phosphorylation in cancer cells (western blot); format: cell-based; conditions: 100 ng/ml rhCXCL16 30 minutes, 10 μg/mL antibody; thyroid, breast and prostate cancer cells; FIG. 3
Experimental: The CXCL16-CXCR6 interaction activates intracellular Akt signaling pathway, which promote cell migration. This experiment was designed to evaluate the ability of CXCL16 antibodies in blocking the Akt signaling induced by the CXCL16-CXCR6 interaction. Cancer cells were treated with 100 ng/ml of rhCXCL16 (976-CX, R&D systems) for 30 minutes in the presence of 10 μg/mL of humanized CXCL16 antibody (HC4LC1, HC5LC1. HC5LC2. HC5LC3. or HC5LC5) or control antibody (MAB976. R&D Systems, Minneapolis, MN). Cell lysates were harvested. Anti-pAkt (dilution ratio 1:1000, #9102; Cell Signaling), anti-Akt (dilution ratio 1:1000, #4370; Cell Signaling), and anti-β actin antibodies (dilution ratio 1:10,000, STJ91464, St John's laboratory, UK) were used. […] HCSLC2.

[3] = target: T1, recombinant human CXCL16 antigen; assay: protein-based ELISA on immobilized human CXCL16 antigen; format: binding; conditions: antibody 0.001~10 nM; versus control IgG antibody; FIG. 1A
Experimental: To further characterize the binding affinity of selected 6 of CXCL16 antibodies, the protein-based ELISA was performed. The recombinant human CXCL16 antigen (976-CX, R&D systems, USA) was immobilized onto 96-well plates and incubated for 2 hours at room temperature. Non-specific binding sites were blocked by incubating with 1% BSA in PBS overnight at 4° C. Plates were then washed with PBS. Humanized CXCL16 antibodies at various concentrations (0.001˜10 nM) were incubated with the immobilized antigen for 2 hours at room temperature. After the incubation, the plates were washed, incubated with HRP-labeled anti-human IgG antibody (W4031, Promega, USA) for 0.5 hours, and developed using the substrate solution (DY008B, R&D systems).

[4] = target: T2, Recombinant human CXCL16 (rhCXCL16) protein; assay: bio-light interferometry (ForteBio) binding analysis; conditions: for ka / kd: antibody captured on biosensor, rhCXCL16 100 nM, 25° C., ND = signal was not detectable; for binding to human CXCL16: in words
Experimental: The binding characteristics of 25 CXCL16 antibodies were analyzed using the bio-light interferometry (ForteBio). All antibodies were diluted in freshly prepared running buffer. Antibodies were immobilized onto the surface of a series of biosensors using the capture methods at 0.3 μg/mL. Recombinant human CXCL16 (rhCXCL16) protein (100 nM) was passed over the surface to generate a binding response for 10 minutes. Binding data for the antibody and antigen interactions were collected at 25° C. on the biosensors. Then, the running buffer was passed for 10 minutes to dissociate them. The association constant (ka) and the dissociation constant (ka) were observed, and the equilibrium binding constant (KD) was calculated. […] R2: The value indicating how well the fit and experimental data correlate; X^2: The measure of error between the experimental data and fitted line.

[5] = tested on: Human CD11b+bone marrow myeloid cells; assay: two-chamber in vitro model of bone metastasis, cell migration; format: cell-based; conditions: FIG. 8B
Experimental: In some embodiments, the CXCL16 antibodies disclosed herein inhibit bone metastasis of cancer cells. The antibodies activity in inhibiting bone metastasis is assessed with methods well-known in the art. One exemplary method uses a two-chamber system mimicking the metastatic niche of bone. In brief, an upper chamber, which is a mesh insert, is suspended within a lower chamber. The lower chamber contains cancer cells/whole marrow cell co-cultures and CXCL16 enriched fluid, mimicking the microenvironment of the metastatic niche of bone. The upper chamber harbors pre-osteoclasts from the bone marrow (for example, Human CD11b+bone marrow myeloid cells). Typically, pre-osteoclasts differentiate into osteoclasts, which support tumor formation in the metastatic niche of the bone. Inhibiting pre-osteoclasts migration thus could effectively block tumor progression in the metastatic niche of the bone, i.e., inhibiting bone metastasis. After contacting the cells in the upper chamber with the CXCL16 antibody, cells retained in the upper chamber (aka, the mesh of the insert) are counted; the number of these cells positively correlates with the ability of the antibodto inhibitng cell recruitment into the metastatic niche:
A two-chamber system was set up to resemble the metastatic niche of bone. A lower chamber contains a conditioned medium (CM) of cancer cells/whole marrow cell co-cultures (called co-CM), which is CXCL16 enriched. CM from cancer cell cultures alone is used for control, referred to as single-CM. Single-CM contains negligible concentrations of CXCL16. An upper chamber (using insert) harboring cells that can be recruited into the metastatic chambers. Human CD11b+bone marrow myeloid cells were treated with the CXCL16 antibodies for one hour, and the treated cells were added to upper chamber. After 4 hr, the insert (aka. the upper chamber) was harvested and cells in the insert were stained and the ability of the CXCL16 antibody in inhibiting cell recruitment into the metastatic niche were assessed.

Molecule	cell migration into the lower chamber of BHP10-3M cells [1]	migration of CXCR6-overexpressed CHO-K1 cell from upper chamber to the lower chamber [2]	Akt phosphorylation activated by rhCXCL16 (Akt phosphorylation)	binding affinity to human CXCL16 (ELISA) [3]	ka [4] [m^−1s^−1]	kd [4] [s⁻¹]	binding to human CXCL16 [4]	chemotaxis and migration (migration of CD11b+ cells) [5]
HC4LC1: humanized CXCL16 antibody, VH SEQ ID NO: 4, VL SEQ ID NO: 6; heavy chain SEQ ID NO: 41, light chain SEQ ID NO: 43 (antibody) heavy: EVQLVESGGGLVKPGGSLRLSCAASGFTFSNAVMNWVRQAPGKGLEWVARIRTKPNNYATFYADSVKGRFTFSRDDSKNTLYLQMNSLKTEDTAVYYCTAWTTEGIYWGQGTTVTVSS[human IgG1 constant region left out] light: DIVMTQSPDSLAVSAGETVTINCKSSQSLLYSGNQKNYLAWYQQKPGQSPKLLIYWASTRQSGVPDRFSGSGSGTDFTLTISSVQAEDVAVYYCQQYYDTPWTFGGGTKVEIKRTVAAPSVFIFPPSDEQLKSGTASVVCLLNNFYPREAKVQWKVDNALQSGNSQESVTEQDSKDSTYSLSSTLTLSKADYEKHKVYACEVTHQGLSSPVTKSFNRGEC	decreased the migration	inhibited the migration	abrogate the Akt phosphorylation	significantly higher than a control IgG antibody	1.74E+04	1.9e-05	strong binding	
HC5LC1: humanized CXCL16 antibody, VH SEQ ID NO: 5, VL SEQ ID NO: 6; heavy chain SEQ ID NO: 42, light chain SEQ ID NO: 43 (antibody) heavy: EVQLVESGGGLVQPGGSLKLSCAASGFTFSNAVMNWVRQASGKGLEWVARIRTKPNNYATFYADSVKGRFTFSRDDSKNTAYLQMNSLKTEDTAMYYCTAWTTEGIYWGQGTLVTVSS[human IgG1 constant region left out] light: DIVMTQSPDSLAVSAGETVTINCKSSQSLLYSGNQKNYLAWYQQKPGQSPKLLIYWASTRQSGVPDRFSGSGSGTDFTLTISSVQAEDVAVYYCQQYYDTPWTFGGGTKVEIKRTVAAPSVFIFPPSDEQLKSGTASVVCLLNNFYPREAKVQWKVDNALQSGNSQESVTEQDSKDSTYSLSSTLTLSKADYEKHKVYACEVTHQGLSSPVTKSFNRGEC	decreased the migration	inhibited the migration	abrogate the Akt phosphorylation	significantly higher than a control IgG antibody	1.83E+04	5.97e-05	strong binding	inhibits chemotaxis and migration
HC5LC2: humanized CXCL16 antibody, VH SEQ ID NO: 5, VL SEQ ID NO: 7; heavy chain SEQ ID NO: 42, light chain SEQ ID NO: 44 (antibody) heavy: EVQLVESGGGLVQPGGSLKLSCAASGFTFSNAVMNWVRQASGKGLEWVARIRTKPNNYATFYADSVKGRFTFSRDDSKNTAYLQMNSLKTEDTAMYYCTAWTTEGIYWGQGTLVTVSS[human IgG1 constant region left out] light: DIVMTQSPSSLAVSLGETATINCKSSQSLLYSGNQKNYLAWYQQKPGQPPKLLIYWASTRQSGVPDRFTGSGAGTDFTLTISSVQAEDLAIYYCQQYYDTPWTFGGGTKVEIKRTVAAPSVFIFPPSDEQLKSGTASVVCLLNNFYPREAKVQWKVDNALQSGNSQESVTEQDSKDSTYSLSSTLTLSKADYEKHKVYACEVTHQGLSSPVTKSFNRGEC	decreased the migration	inhibited the migration	abrogate the Akt phosphorylation	significantly higher than a control IgG antibody	2.43E+04	6.07e-05	strong binding	inhibits chemotaxis and migration
HC5LC3: humanized CXCL16 antibody, VH SEQ ID NO: 5, VL SEQ ID NO: 8; heavy chain SEQ ID NO: 42, light chain SEQ ID NO: 45 (antibody) heavy: EVQLVESGGGLVQPGGSLKLSCAASGFTFSNAVMNWVRQASGKGLEWVARIRTKPNNYATFYADSVKGRFTFSRDDSKNTAYLQMNSLKTEDTAMYYCTAWTTEGIYWGQGTLVTVSS[human IgG1 constant region left out] light: DIQMTQSPSSLSASVGDRVTITCKSSQSLLYSGNQKNYLAWYQQKPGQSPKLLIYWASTRQSGVPDRFSGSGSGTDFTLTISSLQAEDFATYYCQQYYDTPWTFGGGTKVEIKRTVAAPSVFIFPPSDEQLKSGTASVVCLLNNFYPREAKVQWKVDNALQSGNSQESVTEQDSKDSTYSLSSTLTLSKADYEKHKVYACEVTHQGLSSPVTKSFNRGEC	decreased the migration	inhibited the migration	abrogate the Akt phosphorylation	significantly higher than a control IgG antibody	2.64E+04	0.000635	strong binding	
